Source: the supplement of paper PMC3334620
The full ranking holds about 33,000 sequences; the median of “E-score (-0.5 to 0.5)” is about -0.012, and the highest 2% start at about 0.27. The list shows a part of the results.

Biological target: T1, Vhr1 (UniProt P40522)
T1 sequence: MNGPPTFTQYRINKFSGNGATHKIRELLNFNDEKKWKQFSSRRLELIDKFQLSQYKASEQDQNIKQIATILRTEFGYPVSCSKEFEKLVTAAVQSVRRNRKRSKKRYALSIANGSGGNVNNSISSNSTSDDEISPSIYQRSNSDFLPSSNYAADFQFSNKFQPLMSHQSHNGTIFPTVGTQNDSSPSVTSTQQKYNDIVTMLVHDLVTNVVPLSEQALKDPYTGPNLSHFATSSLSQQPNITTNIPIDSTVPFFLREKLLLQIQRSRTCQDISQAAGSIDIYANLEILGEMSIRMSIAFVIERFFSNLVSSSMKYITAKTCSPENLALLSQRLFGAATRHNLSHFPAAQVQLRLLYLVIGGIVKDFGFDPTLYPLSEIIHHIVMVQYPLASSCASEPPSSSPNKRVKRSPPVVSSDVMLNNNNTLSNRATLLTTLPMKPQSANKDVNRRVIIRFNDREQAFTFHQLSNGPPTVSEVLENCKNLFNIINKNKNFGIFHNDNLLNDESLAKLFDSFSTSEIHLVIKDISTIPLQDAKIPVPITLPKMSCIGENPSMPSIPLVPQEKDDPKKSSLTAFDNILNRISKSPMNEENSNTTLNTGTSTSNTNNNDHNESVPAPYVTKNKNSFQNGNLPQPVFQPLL
Assay: PBM E-score (8-mer binding enrichment) (E-score (-0.5 to 0.5)); higher = stronger / more preferred TF binding; most listed sequences are background and not binding sites
Settings: protein concentration: 200 nM; construct: GST-full length
In short: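 Full-length yeast transcription factors or their DNA-binding domains, GST-tagged and expressed with PURExpress, were applied at about 100-200 nM to universal all-10-mer Agilent arrays. These arrays had been made double-stranded by primer extension on fresh or once-stripped slides. Detection used fluorescent anti-GST, normalisation used masliner, and E-scores for ungapped eight-base words pooled with reverse complements came from the Universal PBM Analysis Suite.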

In order of falling “PBM E-score” value:
1. ATTAGTCA  0.381
2. ACCCGCGC  0.342
3. AATGATTA  0.304
4. ACGAACGC  0.243
5. AGACTCAG  0.242
6. ATACGGTG  0.241
7. CTGCATAC  0.235
8. ACTATACT  0.23
9. ACTCATAT  0.229
10. GTATATGA  0.225
11. AACAATCA  0.222
12. CACTCATG  0.217
13. ATCAACAA  0.215
14. CAATCACA  0.211
15. CACACCAG  0.201
16. CCAAACTC  0.186
17. GGTACTAC  0.184
18. ACCAAACC  0.18
19. GGCTGAAC  0.17
20. CCGGGTTC  0.169
21. AGGTGTCA  0.168
22. CTATCATA  0.164
23. CCCGATTA  0.158
24. AAAATCAT  0.151
25. CGGTCTGA  0.143
26. ATCATAGG  0.141
27. AGGGATGG  0.14
28. AATCCCCA  0.129
29. CGTCTCGA  0.129
30. ACCGACAT  0.127
31. AAATATTG  0.126
32. CCATGTGA  0.122
33. ATTACGCG  0.122
34. CCGCCCAC  0.121
35. CACCGGAA  0.116
36. GACCACCA  0.116
37. AACTATAC  0.114
38. GTCTATGA  0.107
39. CAGCATCA  0.105
40. ATGAATTC  0.103
41. ACCAAGTA  0.103
42. CGGACTAA  0.102
43. CCACTAAG  0.102
44. CGCGCTTA  0.0997
45. TGTGTAAA  0.0958
46. AATCGCAG  0.0939
47. GGCGACAC  0.0915
48. CACCGATG  0.0846
49. TATCCGAA  0.0741
50. ACCAGCGA  0.0721
51. AAGATCAC  0.071
52. GTATCCAA  0.0689
53. GCGAATAC  0.0661
54. CCGCATGC  0.0646
55. CGTGTACC  0.0634
56. TTCCCCAA  0.0625
57. AAAAATCA  0.0601
58. GCATGCCA  0.0578
59. CCGTCCCC  0.0563
60. GTCGCGAA  0.0553
61. ACTATTAA  0.0552
62. CTTTGCGA  0.0545
63. GGGTGACC  0.0504
64. AACAATGG  0.0497
65. CAGCCGCA  0.0479
66. CCCAGCAG  0.0474
67. AGGAAGTG  0.0468
68. CGGGTAAC  0.046
69. CACCGTTA  0.0439
70. ATTTACTA  0.0404
71. AGTAGCCC  0.0402
72. ACGCACAG  0.04
73. ACGTCATG  0.0382
74. AGAGTAAC  0.0343
75. GCGCAACA  0.0338
76. GCATGTTA  0.0328
77. CGAACAGA  0.032
78. ATGTCCTG  0.0271
79. GTGCCCCA  0.0263
80. CCGAAAAA  0.0254
81. GTGCGCTA  0.0251
82. GGAGGACC  0.0231
83. ATCCTCAA  0.0223
84. ACCGTAGT  0.0221
85. AACTACCT  0.0216
86. ATACCGTA  0.0215
87. ATTGGATG  0.0194
88. ATAAGTTG  0.0186
89. AAACGACT  0.0184
90. AAGGATGT  0.0183
91. GGGTGCGA  0.0172
92. CCATACAA  0.0171
93. CCGGTAAC  0.0166
94. GTTGTGAA  0.0148
95. AGAAATGC  0.0132
96. AACGCTCG  0.0129
97. GAATTCAC  0.0126
98. GGCGGGTA  0.0114
99. CACGCTTC  0.00973
100. CCGGCAAG  0.00828
101. TCAGACAA  0.00803
102. CCAGGCTC  0.00703
103. ACGACGCA  0.00612
104. TGTTCAAA  0.00608
105. GGTTGATA  0.00555
106. GTACGTGA  0.00511
107. GATCTTTA  0.00452
108. ACCCGAAG  0.00449
109. CGAGGAAC  0.0034
110. CGCAGTTC  0.00294
111. CTTGCACC  -0.00031
112. CGACCTAC  -0.00114
113. CGGGGAAC  -0.00162
114. ATGAAATG  -0.00211
115. CTCGTTGA  -0.00442
116. TATTGGGA  -0.00505
117. AAACCCAA  -0.0052
118. AACTCAAT  -0.00662
119. CGTGTTAG  -0.00744
120. AGGCGCTA  -0.00809
121. CTATTGTC  -0.00994
122. TCCAATCA  -0.0114
123. TAGACAAA  -0.0115
124. CATTTACA  -0.0127
125. GACGTTAA  -0.0139
126. GGGAAGAC  -0.0156
127. CCGGATAA  -0.0159
128. AATGGAGT  -0.016
129. AATTGTGT  -0.017
130. ATTGACAG  -0.0194
131. GGCCATTA  -0.0228
132. GTTGGAGA  -0.0272
133. GAGAGCCA  -0.0281
134. ACCCTCTG  -0.0294
135. ATTTTTCG  -0.0311
136. CGAGGATC  -0.0337
137. ACGGCAGG  -0.0337
138. CACATACG  -0.0445
139. CTTCGGGC  -0.0449
140. GCCAGGTA  -0.0461
141. CAAAGGCA  -0.0467
142. GCAATCGA  -0.0515
143. GTTCAGGA  -0.0515
144. AGGACGAG  -0.0546
145. TCAACTAA  -0.0555
146. ACCTAGCT  -0.0595
147. AGTGGCAT  -0.0608
148. CCGACACC  -0.0624
149. CCTGGGAG  -0.0626
150. ATTCTGGA  -0.0665
151. AATATCGG  -0.0669
152. CAGATAAA  -0.067
153. ATACTTTA  -0.0673
154. AAACCCGG  -0.0675
155. GAGACGAC  -0.0698
156. GGCCTACA  -0.0767
157. ACTTGACG  -0.0804
158. AAATAGCT  -0.0895
159. CCCATTTC  -0.0913
160. ACCTTTGA  -0.0953
161. GGGCGATA  -0.0965
162. AGTTTTGC  -0.0969
163. AGATTTTA  -0.099
164. AACTTAGG  -0.101
165. ACGATAGG  -0.102
166. AAAATCGC  -0.102
167. GTCTGGCA  -0.105
168. CTTAGGAA  -0.105
169. CTCTCCCA  -0.105
170. CTGCACAG  -0.108
171. TCGTCCAA  -0.108
172. ACGACGTA  -0.108
173. GGGTTCAA  -0.126
174. AAATTAGA  -0.13
175. CAAAACAA  -0.13
176. CGGTACCC  -0.131
177. AATGTTCG  -0.131
178. CCGTACAG  -0.131
179. AAGGATCC  -0.135
180. TCCTCTCA  -0.138
181. CAGTTGGC  -0.14
182. GTTGCCAA  -0.145
183. ACGGGAAT  -0.146
184. ATCTCTAG  -0.149
185. AGTTCATC  -0.151
186. CAAATTAC  -0.153
187. GCGAAGCA  -0.157
188. AACGTTAC  -0.158
189. GAAAGGTC  -0.163
190. CTGTTCAA  -0.165
191. AAGCAGCA  -0.166
192. GATGGAAA  -0.166
193. TATTTTGA  -0.168
194. AGGCTAAA  -0.177
195. AAAGTGGA  -0.181
196. GACATTCC  -0.181
197. ACGCGATA  -0.181
198. AAGGCCTA  -0.183
199. GAAGATCA  -0.185
200. AGGTCTTC  -0.185
201. AGGACTGC  -0.19
202. CCAGGCCA  -0.19
203. AACTGGCA  -0.195
204. GCCATTTA  -0.195
205. GAGAGGCC  -0.195
206. GCGATGCA  -0.195
207. CACTTTCC  -0.198
208. CTAGTTTA  -0.201
209. AATTTCTA  -0.201
210. CAAGTTAA  -0.203
211. GATGGGGC  -0.214
212. AAGGGCTA  -0.247
213. ACGATGCC  -0.257
214. GCGTTAGC  -0.263
215. GCGTCTTA  -0.283
216. ATGGGAAT  -0.292
217. GAAAGTCC  -0.317
218. CTAAAGCC  -0.336
219. TAGCTAAA  -0.365
